Data as given in publication PMC9911399, “Two distinct binding modes provide the RNA-binding protein RbFox with extraordinary sequence specificity”.
Substitutions are numbered along the chain they refer to; changes in the protein carry UniProt numbers. The list shows a part of the results.

T1: RBFOX1 RRM RbFoxmut (Fox-RRM*) (Homo sapiens, UniProt Q9NWB1 109-208, R118D;E147R;N151S;E152T)
T1 sequence: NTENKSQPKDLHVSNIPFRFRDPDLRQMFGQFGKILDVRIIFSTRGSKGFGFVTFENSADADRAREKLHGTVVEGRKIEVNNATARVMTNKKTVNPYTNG

B1: CGUUCAG (DNA:RNA)
RNA: GGGAGACCGGAAUUCAGAUUGUCCCGUUCAGUUAAAUCCCGUCGUAGCCACCA
DNA 1: CAATCTGAATTCCGGTCTCCC
DNA 2: TGGTGGCTACGACGGGATT
B2: CCUUGCA (DNA:RNA)
RNA: B1 RNA with G26C, C29G, A30C, G31A
DNA 1: CAATCTGAATTCCGGTCTCCC
DNA 2: TGGTGGCTACGACGGGATT
B3: ACCAGGA (DNA:RNA)
RNA: GGGAGACCGGAAUUCAGAUUGUCCACCAGGAUUAAAUCCCGUCGUAGCCACCA
DNA 1: CAATCTGAATTCCGGTCTCCC
DNA 2: TGGTGGCTACGACGGGATT
B4: UACGUUA (DNA:RNA)
RNA: B3 RNA with A25U, C26A, A28G, G29U, G30U
DNA 1: CAATCTGAATTCCGGTCTCCC
DNA 2: TGGTGGCTACGACGGGATT
B5: CCAGAGU (DNA:RNA)
RNA: B3 RNA with A25C, C27A, A28G, G29A, A31U
DNA 1: CAATCTGAATTCCGGTCTCCC
DNA 2: TGGTGGCTACGACGGGATT
B6: GGCUCCG (DNA:RNA)
RNA: B1 RNA with C25G, U27C, A30C
DNA 1: CAATCTGAATTCCGGTCTCCC
DNA 2: TGGTGGCTACGACGGGATT
B7: AGGGCUU (DNA:RNA)
RNA: B1 RNA with C25A, U27G, U28G, A30U, G31U
DNA 1: CAATCTGAATTCCGGTCTCCC
DNA 2: TGGTGGCTACGACGGGATT
B8: AGAAGGC (DNA:RNA)
RNA: B3 RNA with C26G, C27A, A31C
DNA 1: CAATCTGAATTCCGGTCTCCC
DNA 2: TGGTGGCTACGACGGGATT
B9: ACUUUCG (DNA:RNA)
RNA: B1 RNA with C25A, G26C, C29U, A30C
DNA 1: CAATCTGAATTCCGGTCTCCC
DNA 2: TGGTGGCTACGACGGGATT

biological target: T1, RBFOX1 RRM RbFoxmut (Fox-RRM*); test: EMSA; HiTS-Eq, 1 nM pool, 10 min; buffer printed only for the single-RNA assays: 10 mM Tris pH 7.5, 150 mM NaCl, 3.4 mM EDTA, 0.001% NP-40, 30 C; conditions: tags: His6 N-terminal (pET28a); label: 5' 32P
How it was run: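 These values rest on relative association constants, computed from read-count changes of each RNA species versus the control reaction and normalised to the cognate motif. Reads came from free RNA recovered by 8% native PAGE after purified RbFox RRM (wild type or mutant) at increasing concentrations was equilibrated for 10 min in 50 µL with 1 nM of a 5′-radiolabelled pool with 7 randomized nucleotides and DNA-annealed flanks.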

Q: For B1, which binding signal is on record?
A: The binding signal was 0.0939 KA relative to UGCAUGU.

Q: How did the binding signal turn out when B2 was run?
A: The binding signal was 0.238 KA relative to UGCAUGU.

Q: For B3, which binding signal is on record?
A: Its binding signal is 0.0755 KA relative to UGCAUGU.

Q: How did the binding signal turn out when B4 was run?
A: Its binding signal is 0.131 KA relative to UGCAUGU.

Q: Which binding signal does the source give for B5 here?
A: The binding signal was 0.126 KA relative to UGCAUGU.

Q: B6 was tested. Which binding signal did it give?
A: Its binding signal is 0.116 KA relative to UGCAUGU.

Q: How did the binding signal turn out when B7 was run?
A: The binding signal was 0.0737 KA relative to UGCAUGU.

Q: Which binding signal does the source give for B8 here?
A: The binding signal was 0.0762 KA relative to UGCAUGU.

Q: For B9, which binding signal is on record?
A: The binding signal was 0.0835 KA relative to UGCAUGU.
